The other results are listed elsewhere or left out. Most values come without repeats; read them as rough.
Each molecule was assayed on A101D (assay: cell count relative to DMSO control; melanoma cells; higher = more viable cells). Conditions: library dose: low library concentration; 72 h.
With `O=C(/C=C/c1cccnc1)NCCCCC1CCN(C(=O)c2ccccc2)CC1` + O=C(O)[C@@H]1[O][Sb](=[O])([O][Sb]2(=[O])[O][C@H]([C@H](O)CO)[C@H](O)[C@H](C(=O)O)[O]2)[O][C@H]([C@H](O)CO)[C@@H]1O [stibogluconate] (first compound 0.01 µM, partner dose 2 µM) the cell count was 98.7%. Molecule `Cc1ccc(Nc2nccc(N(C)c3ccc4c(C)n(C)nc4c3)n2)cc1S(N)(=O)=O` [Pazopanib] + OCCn1cc(-c2cnc3nnn(Cc4ccc5ncccc5c4)c3n2)cn1 [PF04217903] (first compound 0.4 µM, partner dose 1 µM) has a cell count of 94.2%. For `Cc1ccc(Nc2nccc(N(C)c3ccc4c(C)n(C)nc4c3)n2)cc1S(N)(=O)=O` [Pazopanib] + NCC(=O)Nc1ccc(-n2nc(C(F)(F)F)cc2-c2ccc3c(ccc4ccccc43)c2)cc1 [OSU03012] (first compound 0.4 µM, partner dose 1 µM), the cell count was 110%. Work on `CC1(C)CCC(c2ccc(Cl)cc2)=C(CN2CCN(c3ccc(C(=O)NS(=O)(=O)c4ccc(N[C@H](CCN5CCOCC5)CSc5ccccc5)c(S(=O)(=O)C(F)(F)F)c4)cc3)CC2)C1` + OCc1c[nH]c2ccccc12 [Indole-3-carbinol] (first compound 0.4 µM, partner dose 0.8 µM) yielded a cell count of 47.7%. For `O=C(/C=C/c1cccnc1)NCCCCC1CCN(C(=O)c2ccccc2)CC1` + C[C@@H](N)c1ccc(C(=O)Nc2ccnc3[nH]ccc23)cc1 [RKI983] (first compound 0.01 µM, partner dose 0.4 µM), the cell count was 104%.
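Note: cell number obtained by counting DAPI-stained nuclei in high-throughput microscope images with image analysis software, screen run in 1,536-well plates.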
